# Screen size: about 220,000 compounds; about 5,700 (2.6%) were called active. The shares of active, inactive and inconclusive entries below differ from those in the screen. Calls follow the shape of the dose curve; as a rule, active = well fitted inhibition curve with a large enough effect; inconclusive = small, poorly fitted or top-dose-only effect; inactive = no such curve, though single readings can be large or run the other way. Where the call is inconclusive, the potency comes from a doubtful curve fit.
# Target: Lysine-specific demethylase 5B (Homo sapiens) (UniProt Q9UGL1)
# Test: Primary screen for KDM5B Histone Demethylases FDH-coupled qHTS; also: nearly all actives have a fitted effect of over 70% in size; as to activity change, negative = inhibition: 0% is about no effect
# Conditions: FDH-coupled NADH fluorescence (FDH is formaldehyde dehydrogenase); activity change, negative = inhibition: at 57.7 µM (top of the series) unless noted
# Outline: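 Measured: NADH fluorescence change, 30 min, RT. System: KDM5BΔAP 200 nM final, H3K4me3 peptide, α-KG, Fe(II), ascorbate, NAD⁺ plus FDH, pH 7.5 HEPES. Compounds: titrated, 10 min pre-incubation with enzyme.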
# Potency is read from the fitted curve at half-maximal effect; tags tell the direction and shape of the fitted curve.
# UniProt Q9UGL1, sequence (Q9UGL1 whole entry, looked up): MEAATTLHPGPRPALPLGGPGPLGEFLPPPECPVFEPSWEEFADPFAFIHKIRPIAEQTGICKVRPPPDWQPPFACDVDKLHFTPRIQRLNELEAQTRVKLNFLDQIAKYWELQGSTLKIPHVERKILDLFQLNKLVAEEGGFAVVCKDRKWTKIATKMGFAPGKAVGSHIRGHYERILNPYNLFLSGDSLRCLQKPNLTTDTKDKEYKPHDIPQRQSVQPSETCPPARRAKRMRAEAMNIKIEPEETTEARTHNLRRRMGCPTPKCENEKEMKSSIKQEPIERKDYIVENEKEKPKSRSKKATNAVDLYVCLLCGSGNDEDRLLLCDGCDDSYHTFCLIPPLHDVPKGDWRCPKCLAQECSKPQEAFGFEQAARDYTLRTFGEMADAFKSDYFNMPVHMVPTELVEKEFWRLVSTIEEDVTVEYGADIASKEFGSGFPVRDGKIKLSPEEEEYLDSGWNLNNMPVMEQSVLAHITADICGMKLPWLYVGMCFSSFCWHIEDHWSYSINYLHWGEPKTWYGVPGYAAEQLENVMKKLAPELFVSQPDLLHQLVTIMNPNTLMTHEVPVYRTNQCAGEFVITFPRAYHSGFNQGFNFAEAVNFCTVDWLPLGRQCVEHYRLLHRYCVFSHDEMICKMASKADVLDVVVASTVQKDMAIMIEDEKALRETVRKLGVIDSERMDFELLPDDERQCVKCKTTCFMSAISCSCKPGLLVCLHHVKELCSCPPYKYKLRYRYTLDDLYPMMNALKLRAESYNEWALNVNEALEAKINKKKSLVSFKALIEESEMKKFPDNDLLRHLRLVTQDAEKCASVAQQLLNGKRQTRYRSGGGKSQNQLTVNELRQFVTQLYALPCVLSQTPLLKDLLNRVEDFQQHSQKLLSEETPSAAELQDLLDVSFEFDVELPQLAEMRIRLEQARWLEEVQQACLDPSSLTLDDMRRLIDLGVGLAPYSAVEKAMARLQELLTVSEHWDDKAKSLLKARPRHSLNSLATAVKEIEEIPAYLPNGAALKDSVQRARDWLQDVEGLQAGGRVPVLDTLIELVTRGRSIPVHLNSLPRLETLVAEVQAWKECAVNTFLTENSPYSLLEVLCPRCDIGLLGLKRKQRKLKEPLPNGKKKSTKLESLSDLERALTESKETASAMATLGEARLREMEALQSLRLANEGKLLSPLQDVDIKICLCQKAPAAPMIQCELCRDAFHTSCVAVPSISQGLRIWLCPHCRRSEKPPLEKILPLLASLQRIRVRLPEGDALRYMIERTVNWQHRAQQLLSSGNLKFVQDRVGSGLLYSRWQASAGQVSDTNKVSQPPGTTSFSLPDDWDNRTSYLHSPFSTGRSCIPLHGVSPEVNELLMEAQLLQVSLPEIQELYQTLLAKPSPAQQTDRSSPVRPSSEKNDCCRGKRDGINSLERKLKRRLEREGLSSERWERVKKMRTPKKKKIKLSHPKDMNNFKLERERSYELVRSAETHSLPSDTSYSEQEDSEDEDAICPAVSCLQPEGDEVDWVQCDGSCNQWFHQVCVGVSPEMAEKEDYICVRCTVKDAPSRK
SMILES,Potency,"activity change, negative = inhibition"
Cn1c(=O)n(C)c2cc(/C=N/NC(=O)c3cc4cc(Br)ccc4o3)ccc21,"inconclusive: 25.1 µM [inhibitor, partial curve, poor fit]",
CCOC(=O)C(C)Oc1ccc2c(=O)c(-c3ccc(Cl)cc3)c(C)oc2c1 (configuration not stated),inactive,
COc1ccc(Nc2c(-c3ccc(C)o3)nc3cc(C)ccn23)cc1,"inconclusive: 28.2 µM [inhibitor, partial curve, poor fit]",
Cc1cc(C)cc(NC(=O)Cn2cc(C(=O)c3cccs3)c3ccccc32)c1,"inconclusive: 20 µM [inhibitor, partial curve, poor fit]",
Cc1ccc2[nH]c3c(=O)n(CC(=O)N(CCN(C)C)Cc4ccccc4)ncc3c2c1,"inconclusive: 31.6 µM [inhibitor, partial curve, poor fit]",
O=C(NCc1cccnc1)c1nc(-c2cccc(C(F)(F)F)c2)c2ccccn12,"inconclusive: 28.2 µM [inhibitor, partial curve, poor fit]",
COCCn1c(C)c(C)c(S(=O)(=O)c2ccccc2)c1N,"inconclusive: 39.8 µM [inhibitor, single point]",
COCc1cc(=O)[nH]c(-c2csc(C)n2)n1,"inconclusive: 14.1 µM [inhibitor, partial curve, poor fit]",
CCC(CC)C(=O)Nc1ccc(F)cc1,inactive,
Cc1noc(C)c1-c1cc2c(cc(C)n2CCN(C)C)c(-c2ccccc2O)n1,active: 31.6 µM,
COCCOc1ccc2c(n1)CCN(C(=O)Cc1ccc(F)cc1)C2,"inconclusive: 22.4 µM [inhibitor, partial curve, poor fit]",
Cc1nc2sc3c(c2c2nc(C(=O)NCCN(C)C)nn12)CC(C)CC3 (configuration not stated),"inconclusive: 17.8 µM [inhibitor, partial curve, poor fit]",
CCNC(=O)N[C@H]1[C@H](O)[C@@H](N(C)CCc2ccccn2)[C@@H]2OC[C@H]1O2,"inconclusive: 35.5 µM [inhibitor, single point]",
COc1ccc(NC(=O)COc2ccc(/C(C)=N/O)cc2)cc1,inactive,
O/N=C/c1c(O)ccc2ccccc12,"inconclusive: 20 µM [inhibitor, partial curve, poor fit]",
Cc1ccc(CNC(=O)CCc2conc2-c2ccc(F)cc2)o1,"inconclusive: 25.1 µM [inhibitor, partial curve, poor fit]",
O=S(=O)(c1ccc(F)cc1F)N1CCN(Cc2cccc3cccnc23)CC1,inactive,
O=C(NCCC1=CCCCC1)c1ccccc1C(F)(F)F,inactive,
COc1ccc(CN2CCCC23Cc2ccccc2CNC3=O)c(O)c1 (configuration not stated),inactive,
CCc1ccccc1NC(=O)c1cc2c(s1)CN(C(C)C)C2,active: 7.08 µM,
CCOC(=O)c1c(NC(=O)c2ccccc2OCC)sc2c1CCC(CC)C2 (configuration not stated),"inconclusive: 31.6 µM [inhibitor, partial curve, poor fit]",

SMILES,Potency,"activity change, negative = inhibition"
CN(C)S(=O)(=O)c1ccc(NC(=O)CN2CCN(c3ccc(O)cc3)CC2)cc1,"inconclusive: 12.6 µM [inhibitor, partial curve, poor fit]",
CC(=O)N1CCC(N2CC[C@H](CO)[C@H](N(C)C)C2)CC1,inactive,
CCc1ccccc1N(C)C(=O)c1ccc2c(=O)n3c(nc2c1)CCCCC3,"inconclusive: 0.891 µM [inhibitor, partial curve, poor fit]",
COc1ccc(S(=O)(=O)NCC(c2ccc(N(C)C)cc2)N2CCc3ccccc32)cc1OC (configuration not stated),"inconclusive: 15.8 µM [inhibitor, partial curve, poor fit]",
CCC(=O)Nc1cc(C(=O)NCc2ccc(N3CCOCC3)cc2)c2ccc(C)nc2c1,active: 14.1 µM,
Cc1ccc(NC(=O)N2CCCC(Cn3c(C4CC4)nc4cccnc43)C2)cc1F (configuration not stated),inactive,
CN(CCNC(=O)c1cccnc1N1CC2CC(C1)[C@H]1CCCC(=O)N1C2)C1CCCCC1 (some centres not stated),active: 31.6 µM,
COc1ccccc1N1CCN(C(=O)c2cnn(-c3ccc(F)cc3F)c2C2CCNCC2)CC1,"inconclusive: 25.1 µM [inhibitor, partial curve, poor fit]",
COc1cccc(C(=O)Nc2ccc3oc(-c4cccc5c(Br)cccc45)nc3c2)c1,"inconclusive: 1.78 µM [inhibitor, partial curve, poor fit]",
CNc1snc(C)c1C(=O)N(C)CCOc1cccc(Cl)c1,inactive,
Fc1ccc(COc2ccc(-c3nnco3)cc2)c(Br)c1,inactive,
CN(C)CC(O)c1cc2n(n1)CCCN(C(=O)c1cccc(N(C)C)c1)C2 (configuration not stated),"inconclusive: 22.4 µM [inhibitor, partial curve]",
CN1CCC(NC(=O)C2(C)CCc3cnc(N4CCOCC4)nc32)CC1 (configuration not stated),active: 35.5 µM,
CCN(CC)c1ccc(NC(=O)C2CCN(S(=O)(=O)c3cnc[nH]3)CC2)c(C)c1,,inconclusive: -35.3% [inhibitor]
CCCCc1ccc(C(Nc2ccc3nnnn3n2)c2cccs2)cc1 (configuration not stated),"inconclusive: 39.8 µM [inhibitor, single point]",
COc1ccc(-c2nc3c(c(=O)[nH]2)CCN(S(=O)(=O)c2cccs2)C3)cc1,active: 20 µM,
CCc1ccc(NC(=O)C(CC)n2c(=O)c(-c3ccccc3NC(C)=O)nc3ccccc32)cc1 (configuration not stated),"inconclusive: 11.2 µM [inhibitor, partial curve, poor fit]",
O=C(Nc1ccc(-c2nccs2)cc1)C1CCCN1C(=O)c1cccs1 (configuration not stated),"inconclusive: 31.6 µM [inhibitor, single point]",
CN(CCc1ccccn1)C(=O)CCC[C@@H]1[C@H]2CCCN3CCC[C@@H](CN1Cc1cccnc1)[C@@H]23,"inconclusive: 31.6 µM [inhibitor, single point]",
Cc1ccc(C)c(N2CCN(C(=O)c3cnn(-c4ccccc4Cl)c3C3CCN(C(=O)OC(C)(C)C)CC3)CC2)c1,inactive,
COc1ccc(Cc2nc3ccc(C(=O)NCc4ccccc4Cl)cc3o2)cc1,"inconclusive: 1.78 µM [inhibitor, partial curve, poor fit]",
